Test results reported in PubChem BioAssay (NCATS).
This list was built around the results that the source calls inconclusive (neither active nor inactive); the mix of calls is not that of the screen. For part of these data: No potency is given beside an inconclusive call; the fits are too rough. Calls of active or inactive are those of the source. Unless noted, the call rests on the fitted dose curve; in most records, active means well fitted curve in the direction sought with a large enough effect; inconclusive means small, poorly fitted or top-dose-only effect, or another doubt; inactive means no such curve, though single readings can be large; an effect the other way counts as inactive or inconclusive.

How the values were obtained:
[1] = molecular target: Cytochrome P450 2D6 (Homo sapiens) (UniProt P10635); assay: Cytochrome P450 family 2 subfamily D member 6 (CYP2D6) small molecule antagonists: luciferase biochemical (cell-free) qHTS assay (AID 1645840; active means well fitted curve in the direction sought with a large enough effect in the repeat runs; inconclusive means weak or mixed curves; inactive means no such curve, though single readings can be large; an effect the other way counts as inactive or inconclusive; further: potency means the concentration at half of the fitted maximal effect; nearly all actives have a fitted effect of over 55% in size)
Chain of UniProt P10635 (P10635 whole entry, looked up): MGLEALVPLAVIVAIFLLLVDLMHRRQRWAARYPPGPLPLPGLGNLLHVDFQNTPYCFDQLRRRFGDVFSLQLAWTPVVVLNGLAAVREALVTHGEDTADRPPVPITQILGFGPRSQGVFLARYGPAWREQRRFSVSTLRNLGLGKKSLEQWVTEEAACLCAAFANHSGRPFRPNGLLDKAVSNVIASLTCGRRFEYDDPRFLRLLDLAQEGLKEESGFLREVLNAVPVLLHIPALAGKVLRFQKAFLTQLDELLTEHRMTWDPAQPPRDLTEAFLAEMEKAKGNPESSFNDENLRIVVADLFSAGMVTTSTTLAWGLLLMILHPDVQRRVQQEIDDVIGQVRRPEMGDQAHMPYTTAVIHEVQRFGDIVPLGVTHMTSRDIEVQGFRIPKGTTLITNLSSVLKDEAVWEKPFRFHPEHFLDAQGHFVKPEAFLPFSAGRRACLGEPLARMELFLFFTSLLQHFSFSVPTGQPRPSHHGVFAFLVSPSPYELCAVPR
How it was run: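 P450-Glo CYP2D6 system: proluciferin substrate converted by enzyme to luciferin, read by luminescence proportional to activity. Enzyme-substrate mix with compound 10 min at room temperature, then NADPH regeneration 1 h before detection reagent.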

[2] = Primary redox qHTS assay for identification of artifact compounds. (AID 1845223); further: potency means the concentration at half of the fitted maximal effect
How it was run: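 Redox-cycling detection via DTT (250 uM final) oxidation coupled to Amplex Red (25 uM)/HRP (250 mU/mL) in HBSS. 15 min preincubation plus 30 min after DTT, room temperature. Ex/Em 525/598 nm; 4-parameter Hill fit against DMSO and 10 uM DA3003.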

[3] = test system: CASKI; assay: Primary qHTS to identify gynecologic anti-cancer compounds using libraries of approved drugs and bioactive compounds (AID 1345084); settings: Gynecologic cancer cell panel viability, ATPlite luminescence, 48 h; series mostly up to 57.5 µM; further: nearly all actives have a fitted effect of over 55% in size; further: potency means the concentration at half of the fitted maximal effect
How it was run: (§1)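 Cytotoxicity screen measuring ATP content by luciferase luminescence. Each compound is applied at five concentrations for 48 h at 37 C with 5% CO2.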

[4] = test system: SKOV3; assay: as above; settings: Gynecologic cancer cell panel viability, ATPlite luminescence, 48 h; series mostly up to 57.5 µM
How it was run: as §1

[5] = Primary qHTS for inhibitors of nuclear receptor binding SET domain protein 2 (NSD2) in an isogenic RCH-ACV NSD2 p.E1099K mutant (9B) (AID 1645876); settings: activity change, negative = viability loss: at 44.9 µM (top of the series) unless noted; further: nearly all actives have a fitted effect of over 70% in size; further: potency means the concentration at half of the fitted maximal effect
[6] = Primary qHTS for inhibitors of nuclear receptor binding SET domain protein 2 (NSD2) in an RCH-ACV wild type WT cells (2C) (AID 1645877); settings: activity change, negative = cell killing: at 44.9 µM (top of the series) unless noted; further: nearly all actives have a fitted effect of over 70% in size; further: potency means the concentration at half of the fitted maximal effect
[7] = Primary fluorescence-based thiol-reactive (MSTI) qHTS assay for identification of artifact compounds. (AID 1845221); further: potency means the concentration at half of the fitted maximal effect;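 further: thiol-reactive compounds lower the probe fluorescence signal; nearly all actives have a fitted effect of over 65% in size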
How it was run: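 Curve-fitted percent inhibition (4-parameter Hill) derived from fluorescence, Ex 525/Em 598 nm, scaled with Acetyl-MSTI and MSTI; 1 h incubation at room temperature.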

[8] = test system: Zika virus NS2B-NS3 protease (unlinked complex); assay: Primary screen GU Rhodamine qHTS for Zika virus inhibitors: Unlinked NS2B-NS3 protease assay (AID 1347159); settings: Recombinant ZIKV NS2B-NS3 protease, Rhodamine110 substrate fluorescence; activity change, negative = inhibition: at 107 µM (top of the series); further: nearly all actives have a fitted effect of over 60% in size; further: potency means the concentration at half of the fitted maximal effect
How it was run: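 In dose–response format, inhibition of unlinked protease (25 nM) was measured with 1.5 microM bis-peptide Rhodamine110 substrate. Aprotinin served as the intraplate control.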

[9] = molecular target: Phospholipid hydroperoxide glutathione peroxidase GPX4 (Homo sapiens) (UniProt P36969); assay: Primary qHTS Assay for Inhibitors of Recombinant Selenoprotein Glutathione Peroxidase 4 (GPX4) (AID 1845192); settings: activity change, negative = inhibition: at 50 µM (top of the series) unless noted; further: nearly all actives have a fitted effect of over 65% in size
Chain of UniProt P36969 (P36969 whole entry, looked up): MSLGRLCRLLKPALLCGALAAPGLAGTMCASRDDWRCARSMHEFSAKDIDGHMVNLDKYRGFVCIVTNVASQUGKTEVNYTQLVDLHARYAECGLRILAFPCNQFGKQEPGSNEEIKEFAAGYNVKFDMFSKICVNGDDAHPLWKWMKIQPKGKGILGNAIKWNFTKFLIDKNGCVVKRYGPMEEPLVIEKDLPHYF
How it was run: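 NADPH consumption followed by fluorescence at 340/450 nm, t=0 and after 15 min at room temperature. Reaction started with cumene hydroperoxide (0.5 mM final) after 30 min compound–GPX4 preincubation; final 200 nM GPX4, 100 nM GR, 1 mM GSH, 0.5 mM NADPH.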

[10] = P-glycoprotein substrates identified in KB-8-5-11 adenocarcinoma cell line, qHTS therapeutic library screen (AID 1346987); settings: activity change, negative = cytotoxicity: at 44.5 µM (top of the series); further: nearly all actives have a fitted effect of over 65% in size; further: potency means the concentration at half of the fitted maximal effect
How it was run: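 Luminescence from CellTiter-Glo, read 5 min after addition, quantified survival of KB-8-5-11 (P-gp-overexpressing) cells exposed to compounds for 72 h. AC50 was derived from concentration-response curves.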

[11] = test system: PA-1; assay: Primary qHTS to identify gynecologic anti-cancer compounds using libraries of approved drugs and bioactive compounds (AID 1345084); settings: Gynecologic cancer cell panel viability, ATPlite luminescence, 48 h; series mostly up to 57.5 µM; further: nearly all actives have a fitted effect of over 55% in size; further: potency means the concentration at half of the fitted maximal effect
How it was run: as §1

[12] = test system: Tov-21-G; assay: as above; settings: Gynecologic cancer cell panel viability, ATPlite luminescence, 48 h; series mostly up to 57.5 µM
How it was run: as §1

[13] = test system: Tov112D; assay: as above; settings: Gynecologic cancer cell panel viability, ATPlite luminescence, 48 h; series mostly up to 57.5 µM
How it was run: as §1

[14] = molecular target: Cytochrome P450 3A4 (Homo sapiens) (UniProt P08684); assay: Cytochrome P450 family 3 subfamily A member 4 (CYP3A4) small molecule antagonists: luciferase qHTS assay (AID 1645841; active means well fitted curve in the direction sought with a large enough effect in the repeat runs; inconclusive means weak or mixed curves; inactive means no such curve, though single readings can be large; an effect the other way counts as inactive or inconclusive; further: potency means the concentration at half of the fitted maximal effect; nearly all actives have a fitted effect of over 45% in size)
Chain of UniProt P08684 (P08684 whole entry, looked up): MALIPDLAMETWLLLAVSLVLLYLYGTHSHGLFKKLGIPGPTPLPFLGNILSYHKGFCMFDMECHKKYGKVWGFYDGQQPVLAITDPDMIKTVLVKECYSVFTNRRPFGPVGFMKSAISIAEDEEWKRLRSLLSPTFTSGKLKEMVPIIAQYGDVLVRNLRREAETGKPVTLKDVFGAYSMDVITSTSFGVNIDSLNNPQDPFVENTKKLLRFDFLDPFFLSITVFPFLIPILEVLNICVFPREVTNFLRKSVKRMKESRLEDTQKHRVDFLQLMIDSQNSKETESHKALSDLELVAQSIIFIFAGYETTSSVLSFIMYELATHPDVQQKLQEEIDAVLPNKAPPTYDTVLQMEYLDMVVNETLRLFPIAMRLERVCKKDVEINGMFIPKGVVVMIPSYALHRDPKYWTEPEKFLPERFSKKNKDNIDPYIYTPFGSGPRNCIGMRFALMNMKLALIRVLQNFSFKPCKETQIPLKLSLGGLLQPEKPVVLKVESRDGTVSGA
How it was run: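 Luminescent CYP3A4 activity readout: compounds plus enzyme-substrate mix 10 min at room temperature, reaction started with NADPH regenerating system for 1 h, stopped with detection reagent, read after 20 min. Ketoconazole served as control.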

[15] = molecular target: Cytochrome P450 2C9 (Homo sapiens) (UniProt P11712); assay: Cytochrome P450 family 2 subfamily C member 9 (CYP2C9) small molecule antagonists: luciferase biochemical (cell-free) qHTS assay (AID 1645842; active means well fitted curve in the direction sought with a large enough effect in the repeat runs; inconclusive means weak or mixed curves; inactive means no such curve, though single readings can be large; an effect the other way counts as inactive or inconclusive; further: potency means the concentration at half of the fitted maximal effect; nearly all actives have a fitted effect of over 55% in size)
Chain of UniProt P11712 (P11712 whole entry, looked up): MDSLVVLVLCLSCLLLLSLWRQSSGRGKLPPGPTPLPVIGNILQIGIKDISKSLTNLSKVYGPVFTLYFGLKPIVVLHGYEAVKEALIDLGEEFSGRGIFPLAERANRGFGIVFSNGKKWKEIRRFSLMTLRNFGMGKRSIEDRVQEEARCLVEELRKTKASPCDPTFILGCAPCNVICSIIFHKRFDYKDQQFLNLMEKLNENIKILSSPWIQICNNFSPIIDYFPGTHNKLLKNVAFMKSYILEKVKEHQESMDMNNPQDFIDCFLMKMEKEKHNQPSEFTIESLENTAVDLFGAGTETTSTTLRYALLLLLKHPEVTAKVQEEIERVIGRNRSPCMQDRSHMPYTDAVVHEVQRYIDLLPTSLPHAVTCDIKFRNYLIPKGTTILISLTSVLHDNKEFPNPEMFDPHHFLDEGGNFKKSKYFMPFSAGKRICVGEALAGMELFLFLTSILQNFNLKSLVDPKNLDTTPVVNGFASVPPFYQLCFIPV
How it was run: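 P450-Glo CYP2C9 system: proluciferin substrate with enzyme in mix containing 0.4% BSA, 10 min at room temperature, then NADPH regeneration solution added and incubated 1 h at 37C. Detection reagent stopped reaction; luminescence read after 20 min as RLU.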

[16] = test system: Zika virus NS2B-NS3 protease (linked construct); assay: Primary screen NINDS Rhodamine qHTS for Zika virus inhibitors (AID 1347160)
How it was run: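 Each compound, titrated, sat 15 min with 25 nM linked protease before 1.5 microM Rhodamine110 substrate went in. Fluorescence gain over the next 15 min, in pH 8.0 Tris with Tween 20, gave Hill-fitted curves.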

[17] = molecular target: Calcium and integrin-binding protein 1 (Homo sapiens) (UniProt Q99828); assay: Primary qHTS for Identification of Calcium Integrin Binding Protein 1 (CIB1) Competitor (AID 1508620);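 further: GST tagged CIB1 binding a fluorescein labelled alphaIIb integrin peptide tracer; top concentration of the series differs between compounds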
Chain of UniProt Q99828 (Q99828 whole entry, looked up): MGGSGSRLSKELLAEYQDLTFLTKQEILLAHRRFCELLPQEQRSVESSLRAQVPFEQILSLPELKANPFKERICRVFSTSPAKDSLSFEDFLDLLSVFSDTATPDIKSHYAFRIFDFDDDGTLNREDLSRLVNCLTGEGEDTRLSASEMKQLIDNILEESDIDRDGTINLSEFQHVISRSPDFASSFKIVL
How it was run: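 CIB1-GST (1 uM final) and compound incubated 15 min at room temperature before adding FITC-alphaIIb peptide tracer (100 nM final). Competition for binding read by fluorescence polarization (ex 480, em 540) after another 15 min at room temperature.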

[18] = molecular target: Luciferin 4-monooxygenase (Photinus pyralis) (UniProt P08659); assay: Primary firefly luciferase (FLuc) qHTS assay for identification of artifact compounds. (AID 1845220); further: potency means the concentration at half of the fitted maximal effect; nearly all actives have a fitted effect of over 60% in size
How it was run: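 Compounds sat 15 min at room temperature with 10 uM luciferin and 10 uM ATP (pH 7.6 Tris acetate). Firefly luciferase (10 nM final) was then added, and luminescence was read 5 min later. Data normalized to no-enzyme and DMSO controls were Hill-fitted.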
Tags describe the fitted curve by direction and shape.

## O=C(c1ccc(F)cc1)C1CCN(CCn2c(=O)nc3n(c2=O)CCCC3)CC1
[1]
  Potency: inconclusive [inhibitor, single point]
[2]
  Potency: inconclusive [activator, partial curve, poor fit]
[3]
  Potency: inconclusive [cytotoxic, single point]
[4]
  Potency: inconclusive [rising, partial curve, poor fit]

## OC[C@H]1O[C@@H](O[C@H]2[C@H](OCc3ccccc3)O[C@H](CO[C@@H]3OC[C@@H](O)[C@H](O)[C@H]3O)[C@@H](O)[C@@H]2O)[C@H](O)[C@@H](O)[C@@H]1O
[5]
  Potency: inactive
[6]
  Potency: inactive
[7]
  Potency: inconclusive [inhibitor, partial curve]
[3]
  Potency: inactive
[4]
  Potency: inconclusive [rising, single point]

## COC(=O)C1C(c2ccc(O)cc2)C(C(=O)OC)C1c1ccc(O)cc1 (configuration not stated)
[8]
  Potency: inconclusive [inhibitor, partial curve, poor fit]
[9]
  Potency: inactive
[7]
  Potency: inconclusive [inhibitor, full curve, poor fit]
[3]
  Potency: inactive
[4]
  Potency: inconclusive [cytotoxic, single point]

## CC(=O)O[C@@H]1[C@@H](OC(=O)/C=C/c2ccccc2)[C@@H](OC(C)=O)[C@H](O[C@H]2[C@@H]3C=CO[C@@H](O[C@@H]4O[C@H](CO)[C@@H](O)[C@H](O)[C@H]4O)[C@@H]3[C@@]3(CO)O[C@@H]23)O[C@H]1C
[10]
  Potency: inactive
[8]
  Potency: inactive
[3]
  Potency: inactive
[11]
  Potency: inconclusive [rising, partial curve, poor fit]

## C=C1CC23CC1(O)CCC2C1=CC2OC(=O)C(C)(C2O)C1C3C(=O)O (configuration not stated)
[7]
  Potency: inactive
[3]
  Potency: inactive
[12]
  Potency: inactive
[13]
  Potency: inactive

## O=C(O)c1cc(-c2c(-c3ccccc3)nn3ccccc23)n[nH]c1=O
[14]
  Potency: inconclusive [falling, single point]
[15]
  Potency: inconclusive [inhibitor, single point]
[7]
  Potency: inconclusive [inhibitor, full curve]
[3]
  Potency: inactive
[4]
  Potency: inactive
[12]
  Potency: inactive

## CC(C)(C)c1cc(CN2CCN(CC(O)c3ccc(Cl)cc3)CC2)cc(C(C)(C)C)c1O (configuration not stated)
[10]
  Potency: inconclusive [inhibitor, single point]
[1]
  Potency: inconclusive [inhibitor, full curve]
[5]
  Potency: inconclusive [inhibitor, partial curve, poor fit]
[6]
  Potency: inconclusive [inhibitor, partial curve, poor fit]
[9]
  Potency: inactive
[3]
  Potency: inconclusive [rising, partial curve, poor fit]

## COC(=O)[C@@]1(O)C=CC[C@@H]2[C@@]3(C)C[C@@H](c4ccoc4)OC(=O)[C@H]3CC[C@]21C
[6]
  Potency: inactive
[3]
  Potency: inactive
[11]
  Potency: inconclusive [rising, partial curve, poor fit]

## O=C1NC(=Nc2ccccc2F)S/C1=C\c1ccc(C(=O)O)cc1
[16]
  Potency: inconclusive [inhibitor, partial curve, poor fit]
[17]
  Potency: inactive
[18]
  Potency: inconclusive [inhibitor, full curve]
[3]
  Potency: inconclusive [rising, partial curve, poor fit]
[4]
  Potency: inconclusive [rising, single point]
